# Some of the results follow. These are noisy estimates, calculated here from bound and input reads.
# Biological target: T1, Pho4 (S. cerevisiae) (UniProt P07270)
# T1 sequence: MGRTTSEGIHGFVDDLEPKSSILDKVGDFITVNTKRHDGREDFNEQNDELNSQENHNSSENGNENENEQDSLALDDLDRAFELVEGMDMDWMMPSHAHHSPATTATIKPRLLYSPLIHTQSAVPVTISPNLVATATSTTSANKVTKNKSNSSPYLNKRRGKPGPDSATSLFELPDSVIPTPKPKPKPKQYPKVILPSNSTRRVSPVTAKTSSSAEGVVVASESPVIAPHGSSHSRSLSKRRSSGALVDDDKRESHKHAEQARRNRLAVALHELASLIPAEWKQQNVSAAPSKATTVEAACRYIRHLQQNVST
# Experiment: relative binding free energy (BET-seq); higher = weaker binding
# Conditions: reference: library average
row,Sequence,relative binding free energy
1,GTAATCACGTGTGTCT,0.11 kcal/mol
2,CCTGGCACGTGTAGTG,-0.1 kcal/mol
3,AATCACACGTGTGGTT,0.18 kcal/mol
4,CGGGACACGTGAGTAT,0.32 kcal/mol
5,AGAGGCACGTGCATGT,-0.05 kcal/mol
6,TGTGGCACGTGCGTTT,-0.05 kcal/mol
7,TGATTCACGTGTTGAA,0.31 kcal/mol
8,CATGTCACGTGGATTG,0.16 kcal/mol
9,GCGTACACGTGACGGG,0.3 kcal/mol
10,GTGTCCACGTGGGGCA,-0.21 kcal/mol
11,GGATGCACGTGAGTGT,0.24 kcal/mol
12,TTGCGCACGTGGTCAG,-0.11 kcal/mol
13,TCAGTCACGTGCGGTA,0.1 kcal/mol
14,GGTGCCACGTGGGCAG,-0.05 kcal/mol
15,CTGTTCACGTGGGCTG,0.12 kcal/mol
16,AGGGGCACGTGAGTGT,0.05 kcal/mol
17,GTTGGCACGTGTTCGT,0.03 kcal/mol
18,AGTCTCACGTGAGTTT,0.43 kcal/mol
19,CTGAGCACGTGTTGCG,-0.11 kcal/mol
20,ATTATCACGTGGCTTG,-0.03 kcal/mol
21,TTAAGCACGTGATTGC,0.06 kcal/mol
22,AAGTGCACGTGTAAGT,0.07 kcal/mol
23,AGGAACACGTGTGGTA,-0.03 kcal/mol
24,GAATTCACGTGTGAAT,0.6 kcal/mol
25,GGTTGCACGTGTCTTT,0.15 kcal/mol

row,Sequence,relative binding free energy
1,CTGGGCACGTGATGGT,0.04 kcal/mol
2,AAGATCACGTGTGATG,0.2 kcal/mol
3,TACTTCACGTGAGTGG,0.21 kcal/mol
4,TATTGCACGTGTAGGT,-0.02 kcal/mol
5,GGGGCCACGTGTTCTG,-0.1 kcal/mol
6,TTGGACACGTGAGAGG,0.22 kcal/mol
7,GCGGGCACGTGTGGTC,-0.12 kcal/mol
8,GGCTGCACGTGCGGTT,-0.01 kcal/mol
9,ATTCTCACGTGTTTTC,0.25 kcal/mol
10,GTGTGCACGTGAGACA,0.24 kcal/mol
11,GTGAACACGTGTTGGG,0 kcal/mol
12,GGAGTCACGTGAATAG,0.39 kcal/mol
13,GGGTGCACGTGGCATT,-0.07 kcal/mol
14,AAGCTCACGTGCGGGT,0.19 kcal/mol
15,GTAATCACGTGTTGAG,0.32 kcal/mol
16,TGGTTCACGTGGGGGT,0.2 kcal/mol
17,AGTGCCACGTGTTGTA,0.01 kcal/mol
18,CCGGGCACGTGGCGGG,-0.14 kcal/mol
19,TGTAACACGTGAGAAT,0.51 kcal/mol
20,AATATCACGTGTGTGG,0.09 kcal/mol
21,ATTGGCACGTGATATT,-0.05 kcal/mol
22,TGAGGCACGTGGAGTC,-0.04 kcal/mol
23,GTGTACACGTGATATT,0.28 kcal/mol
24,TCGTGCACGTGAGATG,0.2 kcal/mol
25,CATTACACGTGGGGGT,-0.08 kcal/mol

row,Sequence,relative binding free energy
1,CTCGGCACGTGAGGTA,0.14 kcal/mol
2,TTGGTCACGTGTGTCA,0.19 kcal/mol
3,AGTTTCACGTGAGTCA,0.38 kcal/mol
4,TTCGACACGTGGTGCT,0 kcal/mol
5,GAGGTCACGTGGAGTA,0.06 kcal/mol
6,AGCGTCACGTGGAGGA,0.07 kcal/mol
7,GGTTACACGTGATTTG,0.22 kcal/mol
8,GACGGCACGTGCGGTA,0 kcal/mol
9,AAATGCACGTGTTGCG,-0.03 kcal/mol
10,TTTCACACGTGTCTGG,0.03 kcal/mol
11,GGTAACACGTGAAGGT,0.31 kcal/mol
12,AGAGGCACGTGGGTTA,-0.21 kcal/mol
13,TTGACCACGTGGTTGT,-0.18 kcal/mol
14,TAAATCACGTGGTGTG,0.07 kcal/mol
15,GTATTCACGTGTTTTA,0.14 kcal/mol
16,AAGTGCACGTGTTATG,-0.11 kcal/mol
17,TGGATCACGTGTCGAG,0.16 kcal/mol
18,GTTTACACGTGTAGGG,0.24 kcal/mol
19,AGTTTCACGTGTTTTA,0.31 kcal/mol
20,ATCGTCACGTGAGTGG,0.21 kcal/mol
21,ACAGGCACGTGTCGGG,-0.03 kcal/mol
22,TTCTTCACGTGAATTG,0.35 kcal/mol
23,AGGGGCACGTGTGTGA,-0.23 kcal/mol
